# Measured values: article PMC12040169 (PLOS Biology, 2025)
# The other results are listed elsewhere or left out.
# Test system: T1, C. trachomatis L2/434/Bu expressing GFP (CTL2-GFP)
# T1 construct: L2/434/Bu GFP intracellular growth in HeLa cells
# Design: species or system HeLa; C. trachomatis total inclusion area by high-content imaging, normalised to DMSO
# Conditions: total inclusion area; 28.5 h, 10 µM; inhibitor
# Outline: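 Imaging read-out: GFP inclusions and Hoechst nuclei captured by high-content imaging after fixation. Inclusion area/number = chlamydial growth; nuclei count = host cell viability. MIC calculated per earlier method.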
row,Structure (SMILES),% of control remaining
1,COC(C)CN(C)C(=O)c1oc2cc(C)ccc2c1C (centres unmarked) [CBK282043],123.071
2,Cn1ccnc1C(NC(=O)N1CCCCC1)c1ccc(F)c(F)c1 (centres unmarked) [CBK283832],64.0971
3,Cc1ccc(C(=O)C2=C(O)C(=O)N(CCCN(C)C)C2c2ccccn2)o1 (centres unmarked) [CBK269575],77.9316
4,CC(C)NC(=O)N1CCCC2(C1)NCCc1c2[nH]c2ccccc12 (centres unmarked) [CBK046952],93.634
5,Cn1ccnc1C1(O)CCN(C(=O)Nc2ccccc2F)CC1 [CBK282280],75.7144
6,Cc1ccccc1-c1cc(C(=O)Nc2ccc(S(N)(=O)=O)cc2)c2cc(Cl)ccc2n1 [CBK267741],104.595
7,O=C(c1ccc2ncccc2c1)N1CCN(C(=O)c2ccco2)CC1 [CBK144461],120.265
8,Cn1c(CN2CCN(S(=O)(=O)c3ccccc3)CC2)nc2cc([N+](=O)[O-])ccc21 [CBK268321],78.7172
9,CC(=O)NCCSc1cc(N2CCCC2)ncn1 [CBK105621],122.987
10,Cc1c(Cc2c(Cl)cccc2Cl)c(=O)n(C)n1C [CBK113274],68.3889
11,CC1(C)NC(C)(C)C(=N\O)/C(=N\O)C/1=N\O [CBK261512],85.9076
12,Cc1ccc(C(=O)C2=C(O)C(=O)N(Cc3cccnc3)C2c2cccc([N+](=O)[O-])c2)cc1 (centres unmarked) [CBK264593],105.444
13,COc1cccc(Oc2cnc(-c3ccc(C(=O)N(C)C)cc3)c(N)n2)c1 [CBK145185],97.0097
14,O=C(CCN1CCN2CCCCC2C1)N1c2ccccc2Sc2ccc(Cl)cc21 (centres unmarked) [CBK278257F],47.3028
15,CS(=O)(=O)Nc1cccc(-c2cnc3[nH]c(=O)n(Cc4ccc(S(C)(=O)=O)cc4)c3n2)c1 [CBK065061],106.784
16,Cc1cc(C(=O)NCc2c(-c3ccccc3)noc2C)n[nH]1 [CBK144076],92.6387
17,CCOc1ccc(NC(=O)NC(=O)C2CCN(C(C)=O)CC2)cc1 [CBK034852],95.7816
18,Cc1cn(C2CC(O)C(CNC(=O)C(F)(F)F)O2)c(=O)[nH]c1=O (centres unmarked) [CBK201200],138.566
19,CSc1nc(N)c2c3c(sc2n1)CN(C)CC3 [CBK018303],101.746
20,CN(C)c1nc(N2CCOCC2)c(C#N)c(=O)o1 [CBK007447],46.578
21,CC(C)[C@H](CO)Nc1nc(-c2cccc3ccccc23)cnc1N [CBK063701],86.3538

row,Structure (SMILES),% of control remaining
1,O=C1CCCC[C@@H]2[C@@H](N1)[C@H](c1ccccc1)CN2Cc1ccnc2ccccc12 [CBK286280],78.6204
2,CCCc1nn(CC(=O)NC(C)(C)C)c(=O)c2cc3ccsc3n12 [CBK284148],84.7523
3,c1ccc2c(c1)CCN(Cc1nc3ccccc3[nH]1)C2 [CBK126396],103.207
4,COc1ccc(OCC(F)(F)F)c(C(=O)N2CCSCC2)c1 [CBK005950],70.2818
5,Nc1nc(SCC(=O)c2ccc3c(c2)OCCO3)n[nH]1 [CBK266554],92.314
6,Cc1nc(S(=O)(=O)N2CCC3(CCCCC3)C2)cn1C [CBK306306],94.6215
7,CCOC(=O)CCc1nc2ccccc2nc1O [CBK264526],116.234
8,CCNC(=O)N[C@H]1CC[C@]2(C)CCC([C@H](C)C(=O)N3CCCCC3)[C@H](O)[C@H]2[C@@H]1C (some centres unmarked) [CBK289455],112.909
9,CCCc1nnc(SCC(=O)Nc2ccc(CN3CCOCC3)cc2)[nH]1 [CBK305583],105.863
10,CCOc1cc(NC2CCN(C(=O)Cc3ccncc3)CC2)ncn1 [CBK304752],67.8828
11,CN1CCN(c2ccc(-c3cnc(N)c(NC4CCOCC4)n3)cc2)CC1 [CBK064114],91.7513
12,CCOc1cc(/C=C(/C#N)C(N)=S)ccc1OCC(=O)N1CCCC1 [CBK268765],112.245
13,O=C1CC(c2ccco2)Cc2c1cnn2-c1ccccc1 (centres unmarked) [CBK287860],77.7743
14,Cc1cc(C)c2nc(O)nc(O)c2c1 [CBK017986],84.6457
15,CCN(CC)C(=O)c1ccccc1NS(=O)(=O)c1ccc(C)cc1 [CBK045416],100.212
16,CCc1cc(Br)ccc1S(=O)(=O)NCCOc1ccccc1 [CBK044882],84.5232
17,Cc1cccn2c(CN3CCCC(O)C3)c(C(=O)N3CCOCC3)nc12 (centres unmarked) [CBK306545],85.92
18,O=C(O)c1ccc(N2C(=O)C3C4C=CC(C4=C(c4ccccc4)c4ccccc4)C3C2=O)cc1 (centres unmarked) [CBK263030],101.901
19,CS(=O)(=O)Nc1nnc(C2CCCCC2)s1 [CBK069540],81.5681
20,COc1ccc(CCc2nc(C)cc(CN(C)C)c2O)cc1OC [CBK278320C],86.6542
